# Assay results from the supplement of paper PMC7826260.
# The other results are listed elsewhere or left out. Each Rep nickase domain was tested in vitro on the same pool of single strands at 3 µM enzyme and 37 °C for 1 h; the strands have 90 letters, of which the middle is given. A value is the log2 ratio of uncut reads to the pool without enzyme; strong cutting gives strongly negative numbers. There is no active / inactive call. Shares of all reads are compared, so uncut sequences can rise above 0 when many others are cut.
# Test system: T1, Rep nickase domain of Muscovy duck circovirus
# T1 sequence (residues 1-111, tag not shown): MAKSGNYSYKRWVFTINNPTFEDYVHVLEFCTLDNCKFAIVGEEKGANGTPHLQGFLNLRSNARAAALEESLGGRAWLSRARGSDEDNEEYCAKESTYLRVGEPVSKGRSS
# Assay: uncleaved DNA left, log2 of reads against the no-enzyme library (log2 ratio); higher = less cleavage (more negative = more Rep cleavage of the k-mer); sequences stand for … in CTCGTCCG…ACCGGAGA
# Description: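 A pool of 90-nt single-stranded DNAs with seven random bases just before the constant AC of the nick site (name = the seven bases) was cut by 3 µM recombinant His6-SUMO-tagged Rep nickase domain (300 nM DNA, 50 mM HEPES pH 8.0, 50 mM NaCl, 1 mM MnCl2, 1 h, 37 °C, three replicates). Uncut DNA was amplified and sequenced.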
row,Sequence,uncleaved DNA left (log2)
1,GTAACTT,-0.0292
2,CTACTTC,0.00531
3,GCAATAA,0.0279
4,TATATAC,0.071
5,GGTCTGG,0.0294
6,TCAACTT,0.0527
7,TGGTAGA,0.0276
8,CGCAATG,-0.0631
9,AACGATA,0.0026
10,ACTACGA,-0.011
11,GGGAACC,-0.0508
12,GTGATGA,-0.00324
13,TAAGAGT,0.0467
14,TCCAGAC,0.139
15,CGTACAG,0.102
16,GAAGTTA,0.133
17,CAAATCA,0.0671
18,ATCATCG,0.0365
19,CACTGTG,0.0409
20,TAATCGA,0.174

row,Sequence,uncleaved DNA left (log2)
1,AACCCGG,-0.13
2,CGTGGGC,0.0367
3,ACCTACC,0.00469
4,CTGTTAT,-0.149
5,AGAGAGC,0.0778
6,CGTGCAC,-0.149
7,TGGCCGC,-0.0193
8,GACCCGT,-0.00359
9,AAATAAG,-0.105
10,CTGGACC,0.0123
11,ATTCCGA,-0.00146
12,TATCTAG,-0.0099
13,GCAGCTA,-0.0659
14,TTCGCGA,0.0755
15,TTGCAGC,-0.0435
16,AAAGCCC,-0.0726
17,CCGCCCT,-0.156
18,GTTTGGC,0.0363
19,TTTTAAA,0.128
20,AAGCGGG,0.101
